Source: PMC4336329 (PLoS ONE, 2015)
Screen size: about 310,000 compounds; about 2,200 (0.71%) showed an effect of 50% or more. The effect is printed as a negative number. Some of the results follow.

Target: human ether-à-go-go-related gene (hERG) potassium channel (human, UniProt Q12809)
Assay: primary screen, population patch clamp on CHO cells stably expressing hERG

human ether-à-go-go-related gene (hERG) potassium channel, sequence (Q12809 whole entry, looked up): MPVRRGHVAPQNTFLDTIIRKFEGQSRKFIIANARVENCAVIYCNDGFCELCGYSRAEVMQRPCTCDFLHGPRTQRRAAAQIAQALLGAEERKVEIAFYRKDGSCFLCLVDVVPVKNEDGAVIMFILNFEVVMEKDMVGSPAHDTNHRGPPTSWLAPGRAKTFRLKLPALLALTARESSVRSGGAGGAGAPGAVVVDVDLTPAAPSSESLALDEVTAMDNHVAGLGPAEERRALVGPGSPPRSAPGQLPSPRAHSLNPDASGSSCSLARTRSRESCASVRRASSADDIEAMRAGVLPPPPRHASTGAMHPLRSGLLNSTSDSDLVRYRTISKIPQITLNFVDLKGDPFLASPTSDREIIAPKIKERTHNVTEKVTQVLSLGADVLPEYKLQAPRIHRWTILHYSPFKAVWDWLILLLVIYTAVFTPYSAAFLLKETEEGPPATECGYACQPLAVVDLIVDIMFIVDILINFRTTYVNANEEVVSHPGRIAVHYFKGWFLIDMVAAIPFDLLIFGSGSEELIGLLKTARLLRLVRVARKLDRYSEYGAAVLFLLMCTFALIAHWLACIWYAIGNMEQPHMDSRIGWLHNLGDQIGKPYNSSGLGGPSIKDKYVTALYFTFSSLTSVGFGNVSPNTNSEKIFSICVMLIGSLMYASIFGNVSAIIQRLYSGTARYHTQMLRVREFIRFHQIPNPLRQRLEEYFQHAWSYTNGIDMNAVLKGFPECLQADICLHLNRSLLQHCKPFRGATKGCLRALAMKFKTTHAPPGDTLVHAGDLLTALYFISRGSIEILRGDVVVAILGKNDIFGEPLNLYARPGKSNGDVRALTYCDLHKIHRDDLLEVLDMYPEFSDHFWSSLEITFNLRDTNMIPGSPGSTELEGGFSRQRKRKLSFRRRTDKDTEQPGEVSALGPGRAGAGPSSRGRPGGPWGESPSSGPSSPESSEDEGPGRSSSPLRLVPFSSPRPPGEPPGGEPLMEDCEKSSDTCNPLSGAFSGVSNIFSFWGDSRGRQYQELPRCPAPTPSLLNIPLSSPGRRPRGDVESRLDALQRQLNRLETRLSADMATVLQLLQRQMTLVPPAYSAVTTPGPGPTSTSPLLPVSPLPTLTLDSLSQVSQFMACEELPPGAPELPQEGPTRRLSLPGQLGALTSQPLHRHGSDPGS

Row | Compound | hERG current change (%, negative = inhibition) at 1uM
1 | CN(C(=O)c1ccc(Br)o1)C1(C)CCS(=O)(=O)C1 (stereo not drawn) | 17.1%
2 | O=C(COC(=O)c1cc(=O)c2ccccc2o1)Nc1cc(Cl)ccc1Cl | 1.69%
3 | CC(=O)Nc1ccc(NC(=O)CSc2ncnc3sc(C)c(C)c23)cc1 | 11.8%
4 | COc1ccc(S(=O)(=O)Nc2c(C)nc3nc[nH]n3c2=O)cc1 | 17%
5 | CC(=O)N/C(=C/C(C)C)c1ccccc1 | 15.2%
6 | Cc1noc(C)c1Cc1ccc(O)cc1 | 6.38%
7 | Cc1cccc(Oc2ccccc2NC(=O)c2cnccn2)c1 | 9.92%
8 | Cc1noc(C)c1S(=O)(=O)N(Cc1ccccc1)C(C)C | 8.89%
9 | O=C(Cn1nc(C(F)F)cc1C1CC1)NCCC1=CCCCC1 | 9.48%
10 | Cc1nc(-c2ccc(C(=O)N3CCOCC3)cc2)cs1 | 7.02%
11 | O=C(CCCCCn1c(=S)[nH]c2cc3c(cc2c1=O)OCO3)N1CCN(C(=O)c2ccco2)CC1 | -2.83%
12 | CCC(=O)c1ccc(OCCn2cnc3ccccc32)cc1.Cl | 5.6%
13 | COc1ccc(SC[C@H](Cc2ccccc2)N2CC[C@@H](NC(=O)OCc3ccccc3)CCC2=O)cc1 | 5.35%
14 | O=C(Nc1ccc2c(c1)OCO2)c1ccc2nc[nH]c2c1 | -0.122%
15 | NS(=O)(=O)c1ccc(NC(=O)NC2CCCCC2)cc1 | 11.1%
16 | CC(=O)c1c(C)[nH]c(C(=O)OCC(=O)c2c(N)n(CC(C)C)c(=O)n(C)c2=O)c1C | 1.66%
17 | CC1(C)Oc2ccc3ccc(=O)oc3c2/C(=C/Nc2cccc(O)c2)C1=O | 9.86%
18 | Clc1ccc(-c2n[nH]c3c2Cc2ccccc2-3)cc1Cl | 19%
19 | COc1ccc(-n2c(SCC(=O)NCc3ccco3)nc3sc4c(c3c2=O)CCN(C)C4)cc1 | 9.08%
20 | Cc1cccc(OCc2nnc(SCCC(=O)O)n2-c2ccccc2)c1 | 16.2%
21 | CN(CCCCOc1ccc(F)cc1)Cc1ccccc1.O=C(O)C(=O)O | -6.33%
22 | COC(=O)c1ccc(COC(=O)CCS(=O)(=O)c2ccc(C)cc2)cc1 | -2.06%
23 | CC(=O)C1=C(C)Nc2ncnn2C1c1ccc(Cl)cc1 (stereo not drawn) | -4.77%

Row | Compound | hERG current change (%, negative = inhibition) at 1uM
24 | COC(=O)c1ccc(NC(=O)c2ccccc2C(=O)Nc2ccc(C(=O)OC)cc2)cc1 | 16.7%
25 | CCc1c(O)nc2ccccn2c1=O | 9.63%
26 | O=C(CCCn1c(=O)[nH]c2ccc(Br)cc2c1=O)NCc1ccc(Cl)cc1 | 8.41%
27 | O=C(CN1CCOCC1)OCCCc1ccccc1 | 12.3%
28 | O=C(c1noc2c1CCCC2)N1CCN(c2ccccc2)CC1 | -15.8%
29 | O=C(CN(C(=O)CCC(=O)Nc1nccs1)c1ccccc1F)NCCc1ccccc1 | 19.5%
30 | CCOC(=O)CCc1c(C(=O)OCC)[nH]c(CC)c1C(=O)OCc1ccccc1 | 0.747%
31 | CCOc1ccccc1NC(=O)N1CCC(c2nc3ccc(C)cc3[nH]2)CC1 | -17.8%
32 | CCN(CC)CC1(O)CCN(C(=O)c2ccc(Cl)c(Cl)c2)CC1 | 7.95%
33 | O=S(=O)(c1ccc2ccccc2c1)N1CCCOC1 | 0.776%
34 | CCCCc1cc(=O)oc2c(C)c(OCC(=O)N3CCCC3)ccc12 | -29.8%
35 | Cc1cccc(C)c1N=C1C(=O)Nc2ccccc21 | 12.9%
36 | Cn1cc([N+](=O)[O-])c(C(=O)N2CCN(Cc3ccc4c(c3)OCO4)CC2)n1 | 41.5%
37 | Cc1ccc(S(=O)(=O)c2nc(S(C)(=O)=O)sc2NCc2ccc3c(c2)OCO3)cc1 | 5.9%
38 | O=C1C=C(c2ccccc2)C[C@@H](c2ccc(Cl)cc2)C1 | 14%
39 | Cc1ccc(N2C(=O)NC3(CCCCC3)C2=O)cc1 | 9.12%
40 | CCOC(=O)C1CCCN(CCC(=O)Nc2cc(C)ccc2C)C1.Cl (stereo not drawn) | -8.02%
41 | CCOCN(C(=O)Cn1c(COC)nc2ccccc21)c1c(C)cccc1CC | 7.91%
42 | CCN(CC)CCCN1C(=O)c2oc3ccccc3c(=O)c2C1c1cccc(OC)c1OC (stereo not drawn) | 3.66%
43 | O=C(NCCCN1CCOCC1)c1ccc2c(=O)n(-c3ccc(F)c(Cl)c3)c(=S)[nH]c2c1 | 15.3%
44 | CCC(=O)N(CCC(c1ccco1)C(C)C)Cc1ccccc1 (stereo not drawn) | -3.31%
45 | O=C(NNS(=O)(=O)c1ccccc1)c1cnn(-c2ccccc2)c1-n1cccc1 | 9.1%
46 | O=C(CCC(=O)NNC(=O)COc1ccc(Br)cc1Br)NCc1ccccc1 | 16.6%

Row | Compound | hERG current change (%, negative = inhibition) at 1uM
47 | Nc1cc(Cl)ccc1Oc1ccccc1 | -9.39%
48 | Oc1ccc(-c2nccc(-c3cccs3)n2)cc1 | -0.406%
49 | CNC(=O)NC(=O)COc1c(F)c(F)cc(F)c1F | 12.1%
50 | CNc1ccc([N+](=O)[O-])cc1 | 9.7%
51 | CCc1nnc(NC(=O)c2ccc(Cl)c(S(=O)(=O)N3CCc4ccccc43)c2)s1 | 10%
52 | O=C(O)c1c[nH]c2ccc(F)cc2c1=O | 13.4%
53 | COc1ccc(C(=O)NCCCc2ccccc2)cc1 | 7.99%
54 | O=C(NCCCN1CCOCC1)c1ccc2c(c1)N(Cc1ccccc1F)C(=O)c1ccccc1S2=O (stereo not drawn) | 12.2%
55 | O=C(CCCCCn1c(=S)[nH]c2ccc(Br)cc2c1=O)NCC1CCCO1 (stereo not drawn) | 6.36%
56 | CC1Sc2ccc(S(=O)(=O)N3CCC(C(=O)Nc4cccc(Cl)c4)CC3)cc2NC1=O (stereo not drawn) | 11.1%
57 | CC(C)CCN1CCN(Cc2cnc(N3CCCC3)s2)CC1CCO (stereo not drawn) | 10.3%
58 | O=C(Nc1ccccc1)OC1CCCCc2cccnc21 (stereo not drawn) | 15.4%
59 | CC(C)CN(CC(C)C)c1nnc(NC(=O)Cn2c(=O)oc3ccccc32)s1 | 10.6%
60 | CC1CCN(C(=O)COc2ncnc3ccccc23)CC1 | 4.83%
61 | O=C(NNC(=S)Nc1ccc(Cl)cc1)c1ccccc1 | 16.1%
62 | O=C(Nc1ccccc1N1CCCC1)c1cccc(S(=O)(=O)N2CCOCC2)c1 | 3.82%
63 | Cc1ccc2cc(C#N)c(SCC(=O)N3CCCC3)nc2c1 | 0.7%
64 | CCN(CC(=O)Nc1ccc2c(c1)OCCO2)Cc1cc(=O)oc2cc(C)c(C)cc12 | 10%
65 | COC(=O)c1cc2n(n1)CCN(Cc1ccc(C)cc1)C2=O | -7.11%
66 | CN(C)Cc1c(O)ccc2occ(C(O)c3ccccc3)c12 (stereo not drawn) | 10.8%
67 | CCOc1ccc(-c2ccc(/C=C3/C(=N)N4C=CSC4=NC3=O)o2)c([N+](=O)[O-])c1 | 7.31%
68 | COc1ccc(CC(=O)N/N=C/c2cc(Br)cs2)cc1OC | 15.8%
69 | CCOC(=O)Cn1nnnc1CN(Cc1ccc(OC)cc1)Cc1cc2cc(C)ccc2[nH]c1=O | 12.4%

Row | Compound | hERG current change (%, negative = inhibition) at 1uM
70 | COCCCn1c(=O)c2ccccc2n(Cc2cc(C(=O)OC)ccc2OC)c1=O | 15.7%
71 | CC(C)[C@H](NC(=O)N1CCn2c1nc1ccccc12)C(=O)N[C@@H](C(=O)O)c1ccccc1 | 12.6%
72 | O=C(Nc1ccc(N2CCOCC2)nc1N1CCOCC1)c1cccc(C(F)(F)F)c1 | 10.4%
73 | Cc1cc(NC(=O)CSc2nc(=O)cc(N)n2-c2ccc(F)cc2)no1 | 3.33%
74 | CCN1CCN(CC(=O)N/N=C/c2cc(Br)cs2)CC1 | -1.01%
75 | Cc1ccc(S(=O)(=O)N2CCCCC2)cc1C(=O)Nc1cccnc1 | -2.14%
76 | O=C(O)CC(NC(=O)C(c1ccccc1)c1ccccc1)c1ccc(F)cc1 (stereo not drawn) | 12%
77 | O=C(CCCc1nc2ccccc2s1)Nc1nccs1 | 7.26%
78 | Cc1coc2c(C)c3oc(=O)c(CCC(=O)NCCN4CCOCC4)c(C)c3cc12 | -1.1%
79 | Nc1nc(N)c2c(n1)CCCC2 | 7.52%
80 | COc1ccc(C2NCCc3c2[nH]c2ccccc32)cc1CSc1nc2ccccc2s1.Cl (stereo not drawn) | 12.1%
81 | CN1CCC(N(C)CC(O)c2ccccc2)CC1.O=C(O)C(=O)O (stereo not drawn) | 1.81%
82 | COc1ccc(S(=O)(=O)N2CCCCC2)cc1NC(=O)c1ccc(CS(C)(=O)=O)cc1 | 8.92%
83 | CCCC(=O)N(Cc1cc(=O)[nH]c2ccccc12)c1cccc(C)c1 | 13.7%
84 | OC(Cn1cncn1)(Cn1cncn1)c1ccc(F)cc1F | 15.4%
85 | CCOC(=O)c1ccc(NC(=O)NC2CC3CCC(C2)N3)cc1 (stereo not drawn) | 13.3%
86 | O=C(c1cccc(C(F)(F)F)c1)N1CCC(=O)N(C(CO)Cc2ccccc2)CC1 (stereo not drawn) | 16.7%
87 | Cc1ccc(CN2CCN(Cc3ccc(OCCO)cc3)CC2CCO)o1 (stereo not drawn) | 1.83%
88 | C#CCOC(=O)CCCC(=O)NCCCCCCCC | 9.82%
89 | Cc1ccccc1CSCC(=O)Nc1c(C)n(C)n(-c2ccccc2)c1=O | -3.37%
90 | CCOC(=O)/C(C#N)=C/N1CCOCC1 | 5.79%
